Assay results taken from PubChem BioAssay AID686979 (National Center for Advancing Translational Sciences (NCATS), 2013).
The whole screen tested about 420,000 compounds, of which about 50,000 (12%) were called active. The inconclusive results got no clear call from the source; some entries with a clear call stand among them for comparison. Calls come from the whole dose curve; as a rule, active = well fitted inhibition curve with a large enough effect; inconclusive = small, poorly fitted or top-dose-only effect; inactive = flat fitted curve, though single readings scatter. No potency is given beside an inconclusive call; the fits are too rough.

Experiment: qHTS for Inhibitors of human tyrosyl-DNA phosphodiesterase 1 (TDP1): qHTS in cells in presence of CPT; note: nearly all actives have a fitted effect of over 55% in size
Conditions: chicken DT40 Tdp1-/-;hTDP1 cells + 20 nM CPT, ATP luminescence, 48 h; activity change, negative = growth inhibition: at 46.2 µM (top of the series) unless noted
Outline: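 Chicken DT40 Tdp1-/- cells stably complemented with human TDP1 were seeded at 400 cells/well in medium containing 20 nM camptothecin, exposed to pin-transferred compounds, and grown at 37 °C for at least 48 hr. Viability was read as ATP luminescence.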
% is set by controls: 0 for no effect and ±100 for the full control effect; potency is the fitted concentration of half-maximal effect; tags give direction and shape of the fitted curve.

| Structure (SMILES) | Potency | activity change, negative = growth inhibition |
| --- | --- | --- |
| Cc1cc(Cl)ccc1C(=O)C1CCCN(C(=O)c2cncs2)C1 (centres undefined) | inconclusive [inhibitor, single point] | – |
| CCN1c2ccccc2-c2nc(SCC(=O)Nc3cccc(C)c3C)ncc2S1(=O)=O | inconclusive [inhibitor, single point] | – |
| COc1ccc(/C=C2\SC(=O)N(CCNC(=O)C3CCN(S(=O)(=O)c4cccs4)CC3)C2=O)cc1 | inconclusive [inhibitor, partial curve, poor fit] | – |
| Cc1ccc2oc(=O)n(CCC(=O)Nc3ccc(N4CCOCC4)cc3)c2c1 | – | inactive: -2.29% |
| CC1CCN(C(=O)c2cc(-c3ccccc3O)on2)CC1 | – | inactive: -26.9% |
| COc1cc(C)nc(N(Cc2ccccc2)S(=O)(=O)c2ccc(C)cc2)n1 | inconclusive [inhibitor, single point] | – |
| COc1ccc(-n2c(=O)c3c4c(sc3n3c(=S)[nH]nc23)CCCC4)cc1 | inconclusive [inhibitor, single point] | – |
| CC1=C(c2ccc(Cl)cc2)[N+](=O)C(C)(C)N1[O-] | active: 16.4 µM | – |
| COc1ccc(C(C)=O)cc1Cn1c(C)c(C(=O)NCc2ccc(C(F)(F)F)cc2)sc1=O | inconclusive [inhibitor, single point] | – |
| CN(CCc1ccccc1)C(=O)c1cccc(NC(=O)Cc2cccc(NC(=O)C3CCCN(C(=O)c4ccccc4)C3)c2)c1 (centres undefined) | inconclusive [inhibitor, single point] | – |
| COc1ccc(N2C3=[N+](CCCC3)CC2(C)O)cc1 (centres undefined) | active: 4.11 µM | – |
| Cc1ccc(N2CCN(C(=O)NC3CCCCC3)CC2)c(C)c1 | inconclusive [inhibitor, single point] | – |
| CSc1ccc(CN(C)C(=O)c2cccc(S(=O)(=O)NCc3ccccc3)c2)cc1 | inconclusive [inhibitor, single point] | – |
| COc1ccc(-c2cc(C(F)(F)F)n3nc(C(=O)N4CCOCC4)c(Cl)c3n2)cc1 | active: 16.4 µM | – |
| O=C(NC(=S)Nc1cccc2cccnc12)c1cccs1 | inconclusive [inhibitor, single point] | – |
| Cc1cc(C(=O)Nc2sc3c(c2C#N)CCC3)no1 | inconclusive [inhibitor, single point] | – |
| O=S1(=O)CC(N2CCN(CCO)CC2)CN1Cc1cn(Cc2cccc(C(F)(F)F)c2)nn1 (centres undefined) | – | inactive: -15.2% |
| CC(C)c1ccc(/C=N/n2c(-c3ccccc3)n[nH]c2=S)cc1 | inconclusive [inhibitor, single point] | – |
| COC(=O)C1=C(C)Nc2[nH]c(=S)[nH]c(=O)c2C1c1ccc(O)cc1 (centres undefined) | – | inactive: -9.61% |
| CCOC(=O)CSc1nc2sc3c(c2c(=O)n1C1CCCCC1)CCN(C)C3 | inconclusive [inhibitor, single point] | – |
| COc1cccc(NC(=O)CSc2nc3ccccc3nc2N2CCCC2)c1 | inconclusive [inhibitor, single point] | – |
| C=CCn1c2ccccc2c(=O)c2cc(C#Cc3ccccn3)ccc21 | active: 25.9 µM | – |

| Structure (SMILES) | Potency | activity change, negative = growth inhibition |
| --- | --- | --- |
| COc1ccc(-c2sc3ccc(OC)cc3c2-c2ccc(O)cc2)cc1 | inconclusive [inhibitor, single point] | – |
| COC(=O)c1ccc(COC(=O)CCNS(=O)(=O)c2ccc(C)c(C)c2)cc1 | – | inactive: 2.68% |
| CCCSc1nnc(NC(=O)Nc2ccccc2OC)s1 | inconclusive [inhibitor, single point] | – |
| CC(=O)Nc1ccc(NC(=O)c2cc(-c3ccc(F)cc3C)n[nH]2)cc1 | inconclusive [inhibitor, partial curve] | – |
| CCOc1ccc(CCN2C(=S)N([C@@H](Cc3ccc(O)cc3)CN3CCC[C@@H]3CN3C(=S)NC[C@@H]3Cc3ccccc3)C[C@@H]2Cc2ccccc2)cc1 | inconclusive [inhibitor, single point] | – |
| Cc1nn(C)c(C)c1S(=O)(=O)N(CC(=O)NCCc1ccccc1)c1ccc(C(C)C)cc1 | – | inconclusive: -13.4% [inhibitor] |
| Cc1cc(C(=O)N2CC(C)CC(C)C2)c(C)o1 (centres undefined) | inconclusive [inhibitor, single point] | – |
| COc1ccc(-c2coc3c(C(=O)NCCN4CCOCC4)cccc23)c(C)c1 | inconclusive [inhibitor, single point] | – |
| COc1ccc(-c2oc3cc(OC(C)=O)cc(OC(C)=O)c3c(=O)c2OC)cc1 | – | inactive: -1.69% |
| Cc1cccc(N2CCN(C(=S)NCCc3ccccc3)CC2)c1C | – | inactive: -1.01% |
| CCn1nc(C)cc1C(=O)N1CCc2c([nH]c3ccccc23)C1c1cc(F)ccc1F (centres undefined) | inconclusive [inhibitor, single point] | – |
| CCc1ccc(NC(=O)CSc2ccnc(=O)[nH]2)cc1 | – | inactive: 4.58% |
| CCc1nc2c(OCc3ccccc3C)cccn2c1N(C)C(=O)CC(C)C | active: 20.6 µM | – |
| CCN1CCN(C(c2cccs2)C(C)NS(=O)(=O)c2ccc(C)cc2)CC1 (centres undefined) | – | inactive: -20.2% |
| COC(=O)c1ccc(S(=O)(=O)c2ccc([N+](=O)[O-])cc2)cc1 | inconclusive [inhibitor, single point] | – |
| Cc1cc(OCCCCOc2ccc(C#N)cc2)ccc1[N+](=O)[O-] | active: 13 µM | – |
| Cc1c(NS(=O)(=O)c2cccc(C(=O)Nc3cccc(F)c3)c2)c(=O)n(-c2ccccc2)n1C | inconclusive [inhibitor, single point] | – |
| CCCCNC(=O)c1nn(C)c2c1CSc1ccccc1-2 | active: 16.4 µM | – |
| CCc1ccc(NC(=O)CN2C(=O)CSC2=O)cc1 | – | inactive: -6.88% |
| COc1ccc(C(C)(O)c2nc(-c3cccc(NC(C)=O)c3)cs2)cc1 (centres undefined) | – | inactive: -71.8% |
| Cc1ccc(C(=O)c2cn(Cc3cccc(Cl)c3)c3nc(C)ccc3c2=O)cc1 | inconclusive [inhibitor, single point] | – |
| Cc1ccccc1C(=O)NC1CC2CCCC(C1)N2Cc1ccccc1Cl (centres undefined) | inconclusive [inhibitor, single point] | – |
